# Source: article PMC5849085 (Immunity, 2017)
# T1: human IL-1RAcP (residues 1-350) (human, UniProt Q9NPH3 21-350)
# T1 sequence (looked up): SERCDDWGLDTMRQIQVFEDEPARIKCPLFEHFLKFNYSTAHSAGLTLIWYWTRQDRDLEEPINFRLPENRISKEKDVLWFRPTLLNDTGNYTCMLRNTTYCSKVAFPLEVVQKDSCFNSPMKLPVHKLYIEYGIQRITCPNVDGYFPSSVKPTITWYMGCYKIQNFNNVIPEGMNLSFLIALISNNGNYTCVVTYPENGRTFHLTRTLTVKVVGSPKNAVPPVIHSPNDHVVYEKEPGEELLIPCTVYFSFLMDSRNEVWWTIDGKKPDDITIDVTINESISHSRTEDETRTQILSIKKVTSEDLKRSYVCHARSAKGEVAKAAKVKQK
# T2: human IL-1RAcP (residues 1-350) fused to human IgG1-Fc (human, UniProt Q9NPH3 21-350)
# T2 sequence (looked up): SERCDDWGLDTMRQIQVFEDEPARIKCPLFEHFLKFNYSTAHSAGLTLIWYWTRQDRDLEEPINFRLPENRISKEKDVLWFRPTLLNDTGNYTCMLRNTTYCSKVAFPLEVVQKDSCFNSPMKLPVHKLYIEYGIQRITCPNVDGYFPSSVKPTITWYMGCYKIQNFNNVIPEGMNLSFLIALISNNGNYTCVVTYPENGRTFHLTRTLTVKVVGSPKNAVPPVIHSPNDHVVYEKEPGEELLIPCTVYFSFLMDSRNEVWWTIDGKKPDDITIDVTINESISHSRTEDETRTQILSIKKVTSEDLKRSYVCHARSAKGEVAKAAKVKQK
# Columns and labels:
# [1] = biological target: T1, human IL-1RAcP (residues 1-350); assay: HDX-MS
# [2] = biological target: T2, human IL-1RAcP (residues 1-350) fused …; assay: SPR
binder,measurement,setting,value
human IL-1β:IL-1RI binary complex (complex) chain 1: [… about 150 residues …] chain 2: LEADKCKEREEKIILVSSANEIDVRPCPLNPNEHKGTITWYKDDSKTPVSTEQASRIHQHKEKLWFVPAKVEDSGHYYCVVRNSSYCLRIKISAKFVENEPNLCYNAQAIFKQKLPVAGDGGLVCPYMEFFKNENNELPKLQWYKDCKPLLLDNIHFSGVKDRLIVMNVAEKHRGNYTCHASYTYLGKQYPITRVIEFITLEENKPTRPVIVSPANETMEVDLGSQIQLICNVTGQLSDIAYWKWNGSVIDEDDPVLGEDYYSVENPANKRRSTLITVLNISEIESRFYKHPFTCFAKNTHGIDAAYIQLIYPVTNFQK,half-life of the ternary complex (EX1 kinetics of IL-1RAcP(150-156)),[1],> 30 min
same,half-life of the ternary complex,[2],43 min
